In PubChem BioAssay AID624296 (National Center for Advancing Translational Sciences (NCATS), 2012):
Hit rate of the full screen: of about 350,000 compounds, about 9,900 (2.8%) were called active. This list was built around the results that the source calls inconclusive (neither active nor inactive); the mix of calls is not that of the screen. Calls come from the whole dose curve; as a rule, active = well fitted activation curve with a large enough effect; inconclusive = small, poorly fitted or top-dose-only effect; inactive = no such curve, though single readings can be large or run the other way. No potency is given beside an inconclusive call; the fits are too rough.

experiment: A quantitative high throughput screen for small molecules that induce DNA re-replication in MCF 10a normal breast cells.; note: nearly all actives have a fitted effect of over 50% in size; for activity, positive = re-replication: % of control where 0% means no effect; settings: MCF 10A DNA re-replication, Hoechst nuclear intensity, 48 h; activity, positive = re-replication: at 46.1 µM (top of the series)
Potency is the fitted concentration of half-maximal effect; tags give direction and shape of the fitted curve.

Row | Compound | activity, positive = re-replication | Potency
1 | CC(C)(C)OC(=O)c1c(N)n(CCCN2CCCC2=O)c2nc3ccccc3nc12 | inactive: -3.82% | –
2 | C=CCn1c(C)cc(C(=O)COC(=O)/C=C/c2cccc(OC)c2)c1C | – | inconclusive [activator, partial curve, poor fit]
3 | CC(C(=O)OCC(=O)N1CCN(c2ccccc2)CC1)N1C(=O)c2ccccc2C1=O (configuration not stated) | – | inconclusive [activator, full curve, poor fit]
4 | Cc1cc(C)cc(-n2c(C)cc(/C=N/NC(=O)CN(c3c(C)cccc3C)S(C)(=O)=O)c2C)c1 | – | inconclusive [activator, partial curve, poor fit]
5 | O=C(Nc1cccc(C(=O)N2CCCc3ccccc32)c1)c1ccccc1 | – | active: 14.6 µM
6 | CCOC(=O)c1ccccc1NC(=O)c1cn(CC)c2nc(C)ccc2c1=O | inactive: 0.0557% | –
7 | Cc1ccc(C)c2c1cc(C)c1nnc(SCC(=O)N3CCCc4ccccc43)n12 | inactive: 3.66% | –
8 | Cn1ncc(Br)c1N1C(=O)CCC1=O | inactive: -0.931% | –
9 | Cc1ccc(NC2CCCN(C(=O)CCN3CCCCO3)C2)cc1C (configuration not stated) | inactive: -4.81% | –
10 | CC1(C2(O)CCCCC2)NCCc2ccccc21 (configuration not stated) | inactive: -2.38% | –
11 | CN(C)c1ccc(/C=N/NC(=O)CN(c2cccc(Cl)c2)S(C)(=O)=O)cc1Br | inactive: 7.86% | –
12 | Nn1c(-c2ccc(F)cc2)nc2ccccc2c1=O | – | inconclusive [activator, single point]
13 | CC(C)CCNC(=O)C(c1ccco1)N(CCCO)C(=O)Cn1nnc(-c2ccc(F)cc2)n1 (configuration not stated) | inactive: -1.44% | –
14 | CCN(Cc1ccccc1)S(=O)(=O)c1ccc(S(=O)(=O)N2CCN(C)CC2)cc1 | – | inconclusive [activator, single point]
15 | Cc1ccc2nc(N(CCCN(C)C)C(=O)c3cc4ccccc4oc3=O)sc2c1 | inactive: 16.2% | –
16 | CC(=O)N1c2ccc(S(=O)(=O)N3CCCC(C(=O)Nc4cc(C)cc(C)c4)C3)cc2CC1C (configuration not stated) | inactive: 0.69% | –
17 | OC(COc1cc(Cl)c(Cl)cc1Cl)CN1CCN(c2ncccn2)CC1 (configuration not stated) | – | inconclusive [activator, single point]
18 | CC(OC(=O)c1ccc(O)cc1)C(=O)Nc1ccc(Oc2ccccc2)cc1 (configuration not stated) | – | inconclusive [activator, partial curve, poor fit]
19 | Cn1c(=O)n(Cc2ccccc2Br)c2ccccc21 | – | inconclusive [activator, partial curve, poor fit]
20 | CCOC(=O)c1c(N)sc2c(OCC)c(Br)ccc12 | – | inconclusive [activator, single point]
21 | S=c1[nH]nc(-c2ccc3ccccc3n2)n1-c1ccc(Cl)cc1 | – | inconclusive [activator, single point]
22 | Cc1ccc(C)c(OCCn2cc(/C=C(\C#N)C(=O)NCc3cccs3)c3ccccc32)c1 | – | inconclusive [activator, partial curve, poor fit]
23 | COc1ccccc1N1CCN(C(=O)CSc2nc(C)cc(=O)[nH]2)CC1 | inactive: -1.22% | –
24 | Brc1ccc(-c2csc(NNC3=NCCCCC3)n2)cc1 | – | inconclusive [activator, single point]

Row | Compound | activity, positive = re-replication | Potency
25 | Cc1ccccc1NC(=O)Cc1nc(COC(=O)c2cc([N+](=O)[O-])ccc2NCCO)cs1 | – | inconclusive [activator, single point]
26 | Cc1cs/c(=N\N=C\c2ccc(O)cc2)n1Cc1ccco1 | – | inconclusive [activator, single point]
27 | CCCn1nc(-c2ccccc2)c2nc3ccccc3nc21 | – | inconclusive [activator, full curve, poor fit]
28 | CCOC(=O)C(C)Sc1nc2c(c(-c3cccs3)c1C#N)CCC2 (configuration not stated) | – | active: 16.4 µM
29 | CCOC(=O)N1CCN(C2=C(NS(=O)(=O)c3ccc(C)cc3)C(=O)c3ccccc3C2=O)CC1 | – | inconclusive [activator, partial curve, poor fit]
30 | CC1CCCN(C(=O)c2cn(-c3ccccc3)nc2-c2cccnc2)C1 (configuration not stated) | inactive: -0.111% | –
31 | O=C(CSc1ccc(-c2ccc(-n3cccn3)cc2)nn1)Nc1ccccc1F | inactive: 24% | –
32 | COc1ccc(NC(=O)CNc2ccccc2N2CCCC2=O)cc1S(=O)(=O)N1CCOCC1 | inactive: -5.59% | –
33 | C=CCN1C=C(C(C)=O)C(=O)CC1 | – | inconclusive [activator, single point]
34 | O=C1Nc2cc(C(=O)NCCN3CCCCCC3)ccc2S/C1=C\c1ccccc1 | – | inconclusive [activator, single point]
35 | CCCN=Cc1sc2ccc(OCC)cc2c1O | – | inconclusive [activator, single point]
36 | CCOC(=O)c1c(NC(=S)N2CCOCC2)sc2c1CCN(C(=O)OCC)C2 | – | inconclusive [activator, single point]
37 | COc1cc2c(cc1NC(=O)C(Cl)Cl)-c1ccc(NC(=O)C(Cl)Cl)cc1C2 | inactive: 24% | –
38 | Cc1cccc(C)c1NC(=O)NNC(=O)c1cc(C(C)(C)C)nn1Cc1ccccc1 | inactive: 3.21% | –
39 | CCCCn1nc2cc(C(=O)NCc3ccccc3OC)ccc2c1OCC | inactive: -12.1% | –
40 | Cc1ccc(NC(=O)NC2CCCCCCC2)c(C)c1 | inactive: -1.03% | –
41 | CCC(Oc1ccccc1)C(=O)NCc1ccc(S(N)(=O)=O)cc1 (configuration not stated) | – | inconclusive [activator, partial curve]
42 | CCCCC[C@H](O)/C=C/[C@@H]1[C@H]2C/C(=C/CCCC(=O)O)O[C@H]2C[C@H]1O | inactive: 9.17% | –
43 | NC(=O)[C@@H]1CCCN1C(=O)[C@H](Cc1cnc[nH]1)NC(=O)[C@@H]1CCC(=O)N1 | inactive: 1.79% | –
44 | CCCOc1ccc(-c2nc(SCc3ccccc3)[nH]c(=O)c2C#N)cc1OC | – | inconclusive [activator, single point]
45 | O=C1C(=O)N(Cc2ccncc2)C(c2ccccc2F)/C1=C(\O)c1ccc2c(c1)OCCO2 (configuration not stated) | inactive: 1.47% | –
46 | CCOC(=O)CC1(CC(=O)OCC)NC(=O)c2c(C)sc(C(=O)OCC)c2N1 | inactive: -4.24% | –
47 | Cn1c(=O)c2[nH]c(Br)nc2n(C)c1=O | inactive: -2.96% | –
48 | N/C(=N\OC(=O)COc1cc(Cl)c(Cl)cc1Cl)c1ccccn1 | – | inconclusive [activator, single point]

Row | Compound | activity, positive = re-replication | Potency
49 | Cc1ccc(S(=O)(=O)N2CCCCC2CCNC(=O)C(=O)NC2CCCC2)cc1 (configuration not stated) | – | inconclusive [activator, single point]
50 | CC(C)(C)c1cc(CN(CCO)CCO)c(O)c(C(C)(C)C)c1 | – | inconclusive [activator, single point]
51 | C=CCOC1COC2C(OCC=C)COC12 (configuration not stated) | inactive: -0.0709% | –
52 | O=c1oc2ccccc2cc1-c1csc(Nc2nc3ccc(F)cc3s2)n1 | inactive: 1.82% | –
53 | N#CC1=C(N)n2c(s/c(=C\c3ccco3)c2=O)=C(C#N)C1c1ccco1 (configuration not stated) | – | inconclusive [activator, partial curve, poor fit]
54 | CCOc1ccc(S(=O)(=O)N/N=C(\C)c2ccc(Cl)c(Cl)c2Cl)cc1 | – | inconclusive [activator, partial curve]
55 | O=c1c2ccccc2oc2ccc(C#CC3(O)CCCCC3)cc12 | – | inconclusive [activator, single point]
56 | Cc1cccc2c1-c1sc(C(=O)Nc3ccccc3N3CCN(C)CC3)cc1CO2 | – | active: 4.11 µM
57 | C=CC[C@@H](CC(=O)N[C@H](CO)Cc1ccccc1)C(=O)N[C@H](COC(=O)[C@@H](CC=C)CC(=O)OC(C)(C)C)Cc1c[nH]c2ccccc12 | inactive: 18.3% | –
58 | C/C(CC1(O)/C(=N/O)CCc2nonc21)=N\O (configuration not stated) | – | inconclusive [activator, partial curve, poor fit]
59 | O=C(NCCSc1ccc(Br)cc1)c1ccc2nc[nH]c2c1 | – | inconclusive [activator, full curve, poor fit]
60 | Cc1cccc(NC(=O)CSc2ccc(-c3ccccn3)nn2)c1C | – | inconclusive [activator, partial curve, poor fit]
61 | CCOc1ccc(CNCCN2CCCC2)cc1 | inactive: 2.75% | –
62 | CCN1C(=O)[C@H]2[C@H]3CN=C(SCc4ccccc4)N3[C@@](Cc3ccccc3)(C(=O)OC)[C@H]2C1=O | – | inconclusive [activator, full curve]
63 | COc1ccc(-n2ncc(Cl)c(Cl)c2=O)cc1 | – | active: 0.82 µM
64 | O=C(NCc1ccccc1)C1=C[C@@H](c2ccc(Br)cc2)C[C@@H](OCCCCO)O1 | – | inconclusive [activator, single point]
65 | COc1ccc(S(=O)(=O)Nc2ccc(-n3cnnn3)cc2)cc1[N+](=O)[O-] | inactive: -4.95% | –
66 | CC(C)Cn1nc(NC(=O)c2cccs2)c2cc3ccccc3nc21 | – | inconclusive [activator, full curve, poor fit]
67 | Cn1c(=O)[nH]c(=O)c2c1nc(Br)n2C/C=N/Nc1ccccc1 | – | inconclusive [activator, single point]
68 | COc1ccc([N+](=O)[O-])cc1NC(=O)COC(C)=O | – | inconclusive [activator, single point]
69 | CCN(c1ccccc1)S(=O)(=O)c1ccc(C(=O)Nc2nnc(CSC)o2)cc1 | – | inconclusive [activator, single point]
70 | O=C(C=Cc1ccccc1)c1cccs1 | – | inconclusive [activator, single point]
71 | CSc1nc(O)c(C(c2ccccc2)c2c(O)nc(SC)[nH]c2=O)c(=O)[nH]1 | inactive: -29% [at 9.22 µM] | –
72 | Oc1ccc(Cc2ccc(Cl)cc2)c(O)c1 | – | inconclusive [activator, single point]
